# Assay results taken from PMC10405097 (JID Innovations, 2023).
# T1: extracellular domain (aa 29–331) of IL-13Rα2, C-terminal biotinylated Avi-tag (UniProt Q14627 29-331, biotin on the Avi-tag (BirA))
# T1 sequence: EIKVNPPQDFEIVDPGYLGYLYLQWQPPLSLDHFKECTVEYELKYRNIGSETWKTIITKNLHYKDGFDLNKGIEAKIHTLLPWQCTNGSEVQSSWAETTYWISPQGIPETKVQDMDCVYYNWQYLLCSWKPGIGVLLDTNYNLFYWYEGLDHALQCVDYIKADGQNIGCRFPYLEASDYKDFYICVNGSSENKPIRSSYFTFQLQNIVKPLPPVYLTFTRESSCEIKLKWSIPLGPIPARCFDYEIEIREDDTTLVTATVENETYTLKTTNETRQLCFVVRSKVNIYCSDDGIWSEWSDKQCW
# B1: IL-13 ([…]), C-terminally Avi-His-tagged, nonbiotinylated (ligand)
# chain: not shown
# modifications: fully glycosylated
# Target: T1, extracellular domain (aa 29–331) of …
# Experiment: SPR
binder,measurement,value
B1,Kd,0.038 to 0.148 pM
